# Experimental data as given in the supplement of paper PMC12217912.
# The list shows a part of the results. The full chains were built here from the parent and the listed change. Inactive controls read about 0.05.
# B1: TEV protease; numbered along this chain (parent)
# chain: MGESLFKGPRDYNPISSSICHLTNESDGHTTSLYGIGFGPFIITNKHLFRRNNGTLVVQSLHGVFKVKDTTTLQQHLVDGRDMIIIRMPKDFPPFPQKLKFREPQREERICLVTTNFQTKSMSSMVSDTSCTFPSGDGIFWKHWIQTKDGQCGSPLVSTRDGFIVGIHSASNFTNTNNYFTSVPKNFMELLTNQEAQQWVSGWRLNADSVLWGGHKVFMVKPEEPFQPVKEATQL
# Variants of: B1
# Test: raw area under fraction-flipped curve 0-4 h after induction (AUC4h, not background-subtracted), DNA-recorder readout of cleavage of the substrate (dimensionless); higher = more cleavage of the substrate by the protease variant
# Settings: temperature: 34 °C; time window: 0-4 h after rhamnose induction
# Description: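 In vivo DNA recorder in E. coli TOP10(DE3) ΔrhaA at 34 °C. Each TEVp single-site mutant (parent TEVp 0) is paired with a single-site variant of the 7-mer TEVs (canonical ENLYFQ|S). The substrate sits between flexible linkers in a Bxb1-sfGFP-TEVs-SsrA fusion, so cleavage stabilises Bxb1 and speeds flipping of a recombination array, read by NGS. The value is the raw area under the fraction-flipped curve over 0-4 h after rhamnose induction (AUC4h), with ≥20 reads per time point. It is not background-subtracted; inactive controls average about 0.047.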
# 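Further: Bxb1 expression induced with 0.2% (w/v) L-rhamnose at OD600 near 0.5, cultures sampled hourly, flipped fraction per protease–substrate barcode pair counted by paired-end Illumina sequencing.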
Variant,area with substrate ENLAFQS,area with substrate ENLDFQS,area with substrate ENLGFQS,area with substrate ENLHFQS,area with substrate ENLKFQS,area with substrate ENLPFQS,area with substrate ENLQFQS,area with substrate ENLVFQS,area with substrate ENLFFQS,area with substrate ENLIFQS,area with substrate ENLLFQS,area with substrate ENLNFQS,area with substrate ENLSFQS,area with substrate ENLWFQS,area with substrate ENLCFQS,area with substrate ENLEFQS,area with substrate ENLMFQS,area with substrate ENLRFQS,area with substrate ENLTFQS
V78R,0.0576,0.0636,0.0616,0.0574,0.0634,0.0554,0.0566,0.061,,,,,,,,,,,
I86T,0.064,,0.0764,0.0628,0.0678,0.0491,0.0626,,0.0738,0.0655,0.059,0.0485,0.0526,0.0557,,,,,
I86S,0.0492,0.0479,,0.0517,0.0565,0.0507,0.0475,0.0553,0.0694,0.0495,0.0466,0.0557,0.0425,,0.0472,,,,
I86L,0.069,0.0693,,0.07,0.0794,,,0.0865,,,,0.0704,0.057,,,0.0762,,,
F49W,0.0634,0.0625,,0.0527,0.0736,0.0618,0.0549,0.0751,0.0827,0.0912,0.061,0.0657,0.0564,0.0744,0.0889,0.0533,0.0641,0.0738,
D69Y,0.0552,,0.0834,,0.0713,,,,0.0866,,,0.048,0.0631,0.0623,,0.0477,,,
T30P,0.0689,0.0623,0.0515,0.0078,,0.0542,0.0709,0.0697,0.0828,0.0677,0.053,0.0469,0.0255,0.0554,0.0403,,,,
S17T,0.074,0.0627,0.0615,,0.0777,,0.132,,0.0708,0.074,0.0933,0.0623,0.0586,0.0754,0.0598,0.0818,,,
T70N,0.0502,0.0451,,,,0.0639,,,0.0554,,,0.0647,,0.063,0.0581,0.0488,,0.0706,
T23D,0.0675,0.0647,,0.0685,0.0668,0.0429,0.0521,0.101,,0.0975,0.0668,0.0614,0.0566,0.0712,0.0471,0.0553,,0.0454,
P14L,0.0661,0.0738,,0.0902,0.0805,,0.0513,,,,0.0683,0.0736,0.0468,0.085,0.0815,0.0717,0.079,0.0879,
T55D,0.0625,0.0538,0.0477,0.0719,0.0601,0.0701,,0.0729,0.0652,0.0632,0.0675,0.0635,0.0338,,,0.0514,,,
T55N,0.0549,0.0737,0.0655,0.0672,0.0709,0.0466,,,0.0798,,0.0556,0.0633,0.0494,0.0519,0.0855,0.0643,,,
T55L,0.0433,0.0136,,0.0625,,,,0.0739,0.0957,,,0.0581,0.0526,0.0725,,0.0431,,0.0677,
N53W,0.0681,0.0627,0.0695,0.0585,0.0758,0.0589,0.0641,,0.0809,0.0705,,0.066,0.0547,0.0722,,,0.0736,0.0644,0.0638
N53F,0.0625,0.0617,,0.0543,0.0729,0.0508,0.0438,0.0802,0.0699,0.0685,0.0702,0.0563,0.0569,0.0838,,0.0647,,0.0644,
D11C,0.0832,0.0671,0.0703,0.0759,0.0682,0.0462,0.0631,0.0928,0.103,0.104,,0.0532,0.0589,0.0657,0.0652,0.0627,,,
G37H,0.0613,0.0609,,,0.0793,,0.0553,0.076,0.0723,0.0643,,0.0542,0.0655,0.0358,,,0.0687,0.0654,0.0591
V58H,0.0521,0.0399,,,0.0503,0.0532,,,,,0.0507,,,0.0273,0.0541,,,0.0481,
T71K,0.0424,0.0565,,,0.11,0.0535,0.0639,0.086,0.077,,,,,,,0.0629,,0.0794,0.0505
T71R,0.0733,0.0628,,0.0688,0.0607,,0.0877,0.0861,,0.081,,0.203,0.0665,,,,0.079,0.0872,
L61P,0.052,0.0701,0.055,,0.0734,,,,0.0786,0.0884,0.0671,0.0633,0.0664,,0.0509,0.0666,0.0734,0.0687,
K66G,0.0696,0.07,,,0.0726,,,,0.0745,,,0.0637,0.0602,,,,,,0.0727
S18H,0.0556,,,,0.0879,0.0612,0.0746,,0.0873,0.0885,0.0596,,,0.0827,0.0816,,,,
V67K,0.0727,,,0.0673,,,,0.0657,0.07,0.0707,0.0535,,0.0606,,,0.0901,,0.0517,
V67P,0.0485,0.0371,,0.0256,0.0571,0.0615,,,0.0288,,0.0469,,0.0746,,0.0449,0.0308,,0.047,
V67F,0.0693,0.0606,,,0.0662,,,,0.096,0.0348,,0.0574,0.0588,,,0.054,0.0784,0.0817,
V67Y,0.0569,0.061,,0.0701,,,,,0.0703,0.0805,0.0663,0.0598,,,0.0706,0.0896,0.0767,,
Y34V,0.0662,0.0583,0.046,,,0.0655,,,0.0779,,,0.0671,0.0764,,,0.0475,,0.066,
I84R,0.0556,0.0636,,0.0594,0.0757,,0.0554,0.0845,0.0691,0.0566,,0.0598,0.0641,,0.067,0.069,,,
